Assay results reported in PMC4336329 (PLoS ONE, 2015).
Screen size: about 310,000 compounds; about 14,000 (4.5%) showed an effect of 50% or more. Effects have a minus sign here. Some of the results follow.

molecular target: human ether-à-go-go-related gene (hERG) potassium channel (human, UniProt Q12809); test: primary screen, population patch clamp on CHO cells stably expressing hERG
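Further: peak tail current of the secondary pulse compared with the same well before compound.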

human ether-à-go-go-related gene (hERG) potassium channel, sequence (Q12809 whole entry, looked up): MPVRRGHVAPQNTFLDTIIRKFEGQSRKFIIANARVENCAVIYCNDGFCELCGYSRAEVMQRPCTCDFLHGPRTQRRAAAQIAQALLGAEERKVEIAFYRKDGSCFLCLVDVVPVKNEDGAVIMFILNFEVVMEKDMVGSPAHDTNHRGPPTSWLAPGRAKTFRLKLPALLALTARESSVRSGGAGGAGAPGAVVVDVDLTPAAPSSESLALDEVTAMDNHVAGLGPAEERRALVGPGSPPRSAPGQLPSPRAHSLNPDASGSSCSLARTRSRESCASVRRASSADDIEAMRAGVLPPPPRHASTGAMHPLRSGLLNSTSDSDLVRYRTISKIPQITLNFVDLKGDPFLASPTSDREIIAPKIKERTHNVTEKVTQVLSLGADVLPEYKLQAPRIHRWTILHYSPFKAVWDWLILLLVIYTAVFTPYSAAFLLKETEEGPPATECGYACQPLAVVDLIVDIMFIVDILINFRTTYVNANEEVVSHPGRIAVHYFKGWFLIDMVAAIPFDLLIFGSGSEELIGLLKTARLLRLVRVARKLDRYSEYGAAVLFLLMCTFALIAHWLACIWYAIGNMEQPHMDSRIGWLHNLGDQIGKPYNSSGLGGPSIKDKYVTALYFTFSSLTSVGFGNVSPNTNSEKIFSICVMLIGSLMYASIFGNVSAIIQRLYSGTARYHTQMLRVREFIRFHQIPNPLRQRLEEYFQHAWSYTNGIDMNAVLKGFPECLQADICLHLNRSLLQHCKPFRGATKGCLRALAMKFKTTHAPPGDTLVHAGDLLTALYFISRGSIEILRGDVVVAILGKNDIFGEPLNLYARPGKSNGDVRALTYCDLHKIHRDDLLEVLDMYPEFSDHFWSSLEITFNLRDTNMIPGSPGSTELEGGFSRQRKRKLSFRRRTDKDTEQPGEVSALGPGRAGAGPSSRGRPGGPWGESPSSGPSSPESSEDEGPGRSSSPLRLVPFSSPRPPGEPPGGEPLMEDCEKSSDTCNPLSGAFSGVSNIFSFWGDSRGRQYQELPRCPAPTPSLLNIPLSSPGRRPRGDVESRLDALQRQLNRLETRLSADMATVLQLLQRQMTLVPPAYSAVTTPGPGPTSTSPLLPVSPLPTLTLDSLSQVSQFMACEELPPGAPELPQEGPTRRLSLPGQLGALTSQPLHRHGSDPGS

SMILES	hERG current change (%, negative = inhibition) at 10uM [%]
O=C(NCCc1ccccc1)C1CCN(C(=O)Nc2ccccc2)CC1	8.37
Cn1c(=O)oc2cc(S(=O)(=O)N3CCc4ccccc43)ccc21	-16.8
CC1CCCN(C(=O)CNC(=O)c2cccs2)C1 (centres unmarked)	3.17
COc1ccc(NC(=O)c2ccc(C(=O)c3cc(OC)ccc3OC)cc2)cc1	8.73
COc1cc(CN2CCNC(=O)C2CC(=O)NCCCN2CCOCC2)cc(OC)c1 (centres unmarked)	21.5
CCCCN(C)CCNC(=O)c1c[nH]c2ccc(S(=O)(=O)N(CC)CC)cc2c1=O	-1.8
O=C(NC1CC1)C1CCN(c2nc3ccccc3s2)CC1	-5.63
Cc1cccc(N(CC(=O)NCC2CCCO2)C(=O)CCC(=O)Nc2cc(C)on2)c1 (centres unmarked)	4.8
COc1ccc(N2C(=O)CSC2c2ccc3c(c2)OCO3)c(OC)c1 (centres unmarked)	-3.71
CC(C(=O)N1CCCCC1)n1ncn2cccc2c1=O (centres unmarked)	2.12
Cc1ccc(-c2nn(-c3ccccc3)cc2C(=O)NN2CCN(C)CC2)cc1.Cl	19.1
O=C(CSc1cccc[n+]1[O-])Nc1cccc(Oc2ccccc2)c1	-10.5
O=C(NCc1ccco1)c1cc2nc(-c3cccs3)cc(C(F)(F)F)n2n1	-17.6
CN(C)CCCN(C(=O)c1nc2ccccc2s1)c1nc2ccc(F)cc2s1.Cl	4.17
CN(C)c1ccc(C(CNS(=O)(=O)c2ccc3ccccc3c2)N2CCOCC2)cc1 (centres unmarked)	-19.9
CCOC(=O)C1CCN(C(=O)CCCCn2c(=O)[nH]c3ccccc3c2=O)CC1	-17.1
CSc1nc(NCc2ccco2)c2c3c(sc2n1)CN(C)CC3	-75
COC(=O)CN1C(=S)N(C)C(=O)/C1=C/c1cccs1	5.21
O=C(CN1C(=O)NC2(CCCCCC2)C1=O)NCc1cccs1	7.72
CCOc1ccc(NS(=O)(=O)c2ccc3[nH]c(=O)oc3c2)cc1	1.46
CCC1=C(OC(=O)N(CC)CC)N2C(=O)OC(=NCC3CC3)[C@]2(Cc2ccccc2)[C@H]2C1=CC[C@H]1C(=O)N(c3ccccc3)C(=O)[C@H]12	-1.36
COC(=O)[C@H](C)[C@@H]1C[C@@]1(C)[C@@H](NC(=O)OCc1ccccc1)c1ccccc1	-27

SMILES	hERG current change (%, negative = inhibition) at 10uM [%]
CCCOc1ccc(CCC(=O)O)cc1	10.6
CCOc1cc(N2CCOCC2)c(OCC)cc1NC(=O)COC(=O)c1cc(C)cc(C)c1	-3.29
O=C(Cn1c(=O)n(-c2ccccc2)c(=O)n1CC(=O)N1CCCCC1)N1CCCCC1	9.19
Oc1c(/C=N/Nc2cccc3cccnc23)ccc2ccccc12	10.7
COc1ccc([C@@H](NC(=O)OC(C)(C)C)C(=O)OC(C)(C)C)cc1	-1.98
O=C(Cc1ccccc1F)Nc1ccccc1N1CCCC1	-6.22
C=CCNC(=O)c1ccc(N(Cc2ccccc2)S(C)(=O)=O)cc1	-1.09
O=C(Cn1[nH]c(=O)c2ccccc2c1=O)Nc1ccc2c(c1)CCC2	-9.73
Cc1cccc(CN2CCN(Cc3ccco3)CC2)c1.O=C(O)C(=O)O	7.3
CCC(C)N=C1SCC(C)(/C=N/O)S1 (centres unmarked)	-27
CN1CCN(CCOC2c3ccccc3CSc3ccc(Cl)cc32)CC1.O=C(O)/C=C\C(=O)O (centres unmarked)	-57.2
O=C(NC(=S)Nc1cccc2ncccc12)c1cccs1	-21
CN1C(=O)N(C)C2C1N(CN1CCCCC1)C(=O)N2CN1CCCCC1 (centres unmarked)	13.5
COCCCNC(=O)CCc1ccc(S(=O)(=O)Nc2ccc(C)cc2)cc1	-10.1
CCOC(=O)C1=C(C)N(CCCCCC(=O)O)C(=O)NC1c1ccc([N+](=O)[O-])cc1 (centres unmarked)	16.3
CC(C)C(=O)N(c1ccc(F)cc1)C1C=CS(=O)(=O)C1 (centres unmarked)	1.36
NC(=O)c1ccc(NC(=O)c2ccc(CN3CCOCC3)cc2)cc1	1.54
COc1ccc(NC(=O)Nc2ccccc2F)c(C)c1	15.5
O=C(NNC(=S)NC1CCCCC1)c1cccs1	3.35
COc1ccc(CNC(=O)c2cccnc2SC)cc1OC	17.6
O=C(O)CCC(=O)OCC1CCCO1 (centres unmarked)	-0.944
Cc1ccc(NC(=O)Cn2cccc2)cc1C	5.78
